{
  "source": "paper PMC10478803",
  "about": "“Contributions of the N-terminal flanking residues of an antigenic peptide from the Japanese cedar pollen allergen Cry j 1 to the T-cell activation by HLA-DP5” (International Immunology, 2023)",
  "key": {"[1]": {"system": "TCR(SU3–3)-TG40 and TCR(NM-4)-TG40 cells", "assay": "IL-2 production assay with HLA-DP5-expressing mDC1 cells", "details": "antigen doses > 3 µg ml^−1 (P < 0.05)"}, "[2]": {"system": "HLA-DP5 extracellular region (DPA1*02:02 and DPB1*05:01)", "details": "crystal structure at 2.4 Å; ref [13]; cited from earlier work", "description": "For Chamaecyparis obtusa (Cha o, Japanese cypress) polle ..."}, "[3]": {"system": "mDC1 cells (mouse antigen-presenting dendritic cell line 1)", "assay": "Uptake of TAMRA-labeled NF-pCj1 into mDC1 cells", "details": "TAMRA MFI, 1 μM, 3.5 h at 37°C"}, "[4]": {"system": "HLA-DP5 expressed on mDC1 cells", "assay": "Cell-surface peptide-display assay on HLA-DP5-expressing mDC1 cells", "details": "same levels of peptide uptake and HLA-DP5 expression; vs WT"}, "[5]": {"target": "HLA-DP5 (DPA1*02:02 and DPB1*05:01) (Homo sapiens, UniProt P04440+P20036, A42M/A65V/A84E/F191V/F64L/G113D/G114E/K142R/L158P/M116V/M62Q/P115A/Q81R/R125K/T114A/T199I/T259P/V234M)", "assay": "Peptide competition assay with biotin-conjugated HA1 peptide on HLA-DP5-transfected HEK293 cells", "assay_type": "binding"}},
  "data": [
    {"substance": "KVTVAFNQF [pCj1]", "values": [
      {"measurement": "difference of IL-2 production from NF[WT]-pCj1 (in words)", "setting": "[1]", "value": "significant differences in the IL-2 production"},
      {"measurement": "binding in the peptide-binding groove (in words)", "setting": "[2]", "value": "bound within the PBG"}
    ]},
    {"substance": "DEEMKVTVAFNQF-GPN-EG2-TAMRA", "values": [
      {"measurement": "effect of NF mutation S(P–2)E/K(P–3)E on uptake (in words)", "setting": "[3]", "value": "not affected"},
      {"measurement": "decrease of amount displayed on the mDC1 surface by the S(P–2)E/K(P–3)E mutations", "setting": "[4]", "value": "about 2 fold"}
    ]},
    {"substance": "WT NF-pCj1: C-terminally-flanked version of NF-pCj1 (16-residue) (DKSMKVTVAFNQFGPN)", "values": [
      {"measurement": "competition with the HA1 peptide (in words)", "setting": "[5]; HLA-DP5-expressing HEK293 cells, 24 h, 16-residue peptides", "value": "competed with the HA1 peptide well"}
    ]},
    {"substance": "NF[S(P–2)E/K(P–3)E]-pCj1: double mutation of Ser(–2) and Lys(–3) to Glu in a 13-residue Cry j 1 peptide (NF-pCj1) (DEEMKVTVAFNQF)", "values": [
      {"measurement": "difference of IL-2 production from NF[WT]-pCj1 (in words)", "setting": "[1]", "value": "significant differences in the IL-2 production"},
      {"measurement": "decrease of affinity for HLA-DP5 by the double mutation", "setting": "[5]; S(P–2)E/K(P–3)E vs WT NF-pCj1, competitive binding assay", "value": "about 2 fold"}
    ]}
  ]
}
